Reference: the supplement of paper PMC12217912
This is one part of the list. The full chains were built here from the parent and the listed change. Values near 0.05 are background.

B1: TEV protease; numbered along this chain (parent)
chain: MGESLFKGPRDYNPISSSICHLTNESDGHTTSLYGIGFGPFIITNKHLFRRNNGTLVVQSLHGVFKVKDTTTLQQHLVDGRDMIIIRMPKDFPPFPQKLKFREPQREERICLVTTNFQTKSMSSMVSDTSCTFPSGDGIFWKHWIQTKDGQCGSPLVSTRDGFIVGIHSASNFTNTNNYFTSVPKNFMELLTNQEAQQWVSGWRLNADSVLWGGHKVFMVKPEEPFQPVKEATQL

Variants of: B1
Assay: raw area under fraction-flipped curve 0-4 h after induction (AUC4h, not background-subtracted), DNA-recorder readout of cleavage of the substrate (dimensionless); higher = more cleavage of the substrate by the protease variant
Settings: temperature: 34 °C; time window: 0-4 h after rhamnose induction
Experimental: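 In vivo DNA recorder in E. coli TOP10(DE3) ΔrhaA at 34 °C. Each TEVp single-site mutant (parent TEVp 0) is paired with a single-site variant of the 7-mer TEVs (canonical ENLYFQ|S). The substrate sits between flexible linkers in a Bxb1-sfGFP-TEVs-SsrA fusion, so cleavage stabilises Bxb1 and speeds flipping of a recombination array, read by NGS. The value is the raw area under the fraction-flipped curve over 0-4 h after rhamnose induction (AUC4h), with ≥20 reads per time point. It is not background-subtracted; inactive controls average about 0.047.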
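Also: Bxb1 expression induced with 0.2% (w/v) L-rhamnose at OD600 near 0.5, cultures sampled hourly, flipped fraction per protease–substrate barcode pair counted by paired-end Illumina sequencing.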

Variant	area with substrate ENLAFQS	area with substrate ENLCFQS	area with substrate ENLDFQS	area with substrate ENLEFQS	area with substrate ENLFFQS	area with substrate ENLGFQS	area with substrate ENLHFQS	area with substrate ENLIFQS	area with substrate ENLKFQS	area with substrate ENLLFQS	area with substrate ENLNFQS	area with substrate ENLPFQS	area with substrate ENLQFQS	area with substrate ENLSFQS	area with substrate ENLVFQS	area with substrate ENLWFQS	area with substrate ENLMFQS	area with substrate ENLRFQS	area with substrate ENLTFQS
MGESLFKGPRDYNPISSSICHLTNESDGHTTSLYGIGFGPFIITNKHLFRRNNGTLVVQSLHGVFKVKDTTTLQQHLVDGRDMIIIRMPKDFPPFPQKLKFRRPQREERICLVTTNFQTKSMSSMVSDTSCTFPSGDGIFWKHWIQTKDGQCGSPLVSTRDGFIVGIHSASNFTNTNNYFTSVPKNFMELLTNQEAQQWVSGWRLNADSVLWGGHKVFMVKPEEPFQPVKEATQL [E103R]	0.066	0.0617	0.0643	0.066	0.085	0.0824	0.0617	0.0903	0.0723	0.0655	0.0527	0.0595	0.0558	0.0534	0.0746	0.0582			
MGESLFKGPRDYNPISSSICHLTNESDGHTTSLYGIGFGPFIITNKHLFRRNNGTLVVQSLHGVFKVKDTTTLQQHLVDGRDMIIIRMPKDFPPFPQDLKFREPQREERICLVTTNFQTKSMSSMVSDTSCTFPSGDGIFWKHWIQTKDGQCGSPLVSTRDGFIVGIHSASNFTNTNNYFTSVPKNFMELLTNQEAQQWVSGWRLNADSVLWGGHKVFMVKPEEPFQPVKEATQL [K98D]	0.0707	0.0705	0.069	0.0613	0.0914		0.0818	0.0954	0.0877		0.0716	0.0592	0.0695		0.0983	0.0686	0.07	0.0654	0.0688
MGESLFKGPRDYNPISSSICHLTNESDGHTTSLYGIGFGPFIITNKHLFRRNNGTLVVQSLHGVFKVKDTTTLQQHLVDGRDMIIIRMPKDFPPFPQKLKFREPQREERICLVTTHFQTKSMSSMVSDTSCTFPSGDGIFWKHWIQTKDGQCGSPLVSTRDGFIVGIHSASNFTNTNNYFTSVPKNFMELLTNQEAQQWVSGWRLNADSVLWGGHKVFMVKPEEPFQPVKEATQL [N116H]	0.0524				0.0723	0.0912	0.0582							0.0746					
MGESLFKGPRDYNPISSSICHLTNESDGHTTSLYGIGFGPFIITNKHLFRRNNGTLVVQSLHGVFKVKDTTTLQQHLVDGRDMIIIRMPKDFPPFPQKLKFREPQREERICLRTTNFQTKSMSSMVSDTSCTFPSGDGIFWKHWIQTKDGQCGSPLVSTRDGFIVGIHSASNFTNTNNYFTSVPKNFMELLTNQEAQQWVSGWRLNADSVLWGGHKVFMVKPEEPFQPVKEATQL [V113R]	0.0514	0.0645	0.0651	0.0276	0.059		0.0771	0.0621	0.0735		0.0517		0.0337	0.0408	0.0632			0.0638	
MGESLFKGPRDYNPISSSICHLTNESDGHTTSLYGIGFGPFIITNKHLFRRNNGTLVVQSLHGVFKVKDTTTLQQHLVDGRDMIIIRMPKDFPPFPQKLKFREPQREERICLVTTNSQTKSMSSMVSDTSCTFPSGDGIFWKHWIQTKDGQCGSPLVSTRDGFIVGIHSASNFTNTNNYFTSVPKNFMELLTNQEAQQWVSGWRLNADSVLWGGHKVFMVKPEEPFQPVKEATQL [F117S]	0.0629	0.076	0.0593		0.0982		0.083	0.0728		0.0717	0.0582	0.0583		0.0525	0.083	0.0996		0.075	
MGESLFKGPRDYNPISSSICHLTNESDGHTTSLYGIGFGPFIITNKHLFRRNNGTLVVQSLHGVFKVKDTTTLQQHLVDGRDMIIIRMPKDFPPFPQKLKFREPQREERICLVTTNQQTKSMSSMVSDTSCTFPSGDGIFWKHWIQTKDGQCGSPLVSTRDGFIVGIHSASNFTNTNNYFTSVPKNFMELLTNQEAQQWVSGWRLNADSVLWGGHKVFMVKPEEPFQPVKEATQL [F117Q]	0.0837	0.0665	0.0676	0.0565	0.0955	0.0608	0.0847		0.0776		0.0442		0.0683			0.0748			
MGESLFKGPRDYNPISSSICHLTNESDGHTTSLYGIGFGPFIITNKHLFRRNNGTLVVQSLHGVFKVKDTTTLQQHLVDGRDMIIIRMPKDFPPFPQKLKFREPQREERICLVTTNCQTKSMSSMVSDTSCTFPSGDGIFWKHWIQTKDGQCGSPLVSTRDGFIVGIHSASNFTNTNNYFTSVPKNFMELLTNQEAQQWVSGWRLNADSVLWGGHKVFMVKPEEPFQPVKEATQL [F117C]	0.0525	0.0557	0.0544	0.105	0.0488	0.0641	0.0532	0.047	0.085	0.119	0.0503	0.0246			0.0638				0.0735
MGESLFKGPRDYNPISSSICHLTNESDGHTTSLYGIGFGPFIITNKHLFRRNNGTLVVQSLHGVFKVKDTTTLQQHLVDGRDMIIIRMPKDFPPFPQKLKFREPQREERLCLVTTNFQTKSMSSMVSDTSCTFPSGDGIFWKHWIQTKDGQCGSPLVSTRDGFIVGIHSASNFTNTNNYFTSVPKNFMELLTNQEAQQWVSGWRLNADSVLWGGHKVFMVKPEEPFQPVKEATQL [I110L]	0.0581		0.0675	0.0763			0.0672	0.0786	0.0902	0.0659	0.0744		0.0791	0.0505				0.0654	
MGESLFKGPRDYNPISSSICHLTNESDGHTTSLYGIGFGPFIITNKHLFRRNNGTLVVQSLHGVFKVKDTTTLQQHLVDGRDMIIIRMPKDFPPFPQKLKFREPQVEERICLVTTNFQTKSMSSMVSDTSCTFPSGDGIFWKHWIQTKDGQCGSPLVSTRDGFIVGIHSASNFTNTNNYFTSVPKNFMELLTNQEAQQWVSGWRLNADSVLWGGHKVFMVKPEEPFQPVKEATQL [R106V]	0.0718			0.0575	0.0772	0.0764	0.075	0.084	0.0829		0.0743	0.0608		0.0605		0.0566		0.0714	
